This is one part of the list. These are noisy estimates, calculated here from bound and input reads.

The experiment concerns the target T1, Pho4 (S. cerevisiae) (UniProt P07270).
T1 sequence: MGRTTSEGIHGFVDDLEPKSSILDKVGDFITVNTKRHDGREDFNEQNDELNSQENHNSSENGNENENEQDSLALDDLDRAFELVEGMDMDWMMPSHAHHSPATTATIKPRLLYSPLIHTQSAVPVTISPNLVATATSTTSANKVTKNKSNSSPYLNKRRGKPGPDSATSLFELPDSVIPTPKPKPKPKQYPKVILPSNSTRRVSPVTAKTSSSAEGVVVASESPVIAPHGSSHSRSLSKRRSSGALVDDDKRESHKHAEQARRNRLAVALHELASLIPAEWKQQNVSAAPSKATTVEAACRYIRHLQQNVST
Kind of experiment: relative binding free energy (BET-seq); higher = weaker binding. As to conditions: reference: library average.
With TGAAGCACGTGGAGTA, the “relative binding free energy” value is -0.13 kcal/mol.

For GTATGCACGTGGGTTC, the “relative binding free energy” value came out at 0.06 kcal/mol.

In the case of GTTCACACGTGGGGTT, the “relative binding free energy” value stood at 0.04 kcal/mol.

ATAAACACGTGTAGGG: the “relative binding free energy” value worked out at 0.19 kcal/mol.

GGGGGCACGTGCGGGA: the “relative binding free energy” value is -0.04 kcal/mol.

For ATTTACACGTGATTTG, the “relative binding free energy” value was 0.15 kcal/mol.

Consider TTTTCCACGTGAGATT, for which the “relative binding free energy” value turned out to be 0.33 kcal/mol.

For the sequence TGGTTCACGTGTTAAC, the “relative binding free energy” value came out at 0.2 kcal/mol.

Regarding AAGCTCACGTGGTGTT, the “relative binding free energy” value amounted to 0.14 kcal/mol.

As for AGGCTCACGTGGGTTG, the “relative binding free energy” value is 0.06 kcal/mol.

On to GTGCGCACGTGCGGGA, for which the “relative binding free energy” value was -0.18 kcal/mol.

TATCCCACGTGGGTTG: the “relative binding free energy” value was -0.13 kcal/mol.

Take TGAGTCACGTGAGGGA: the “relative binding free energy” value turned out to be 0.33 kcal/mol.

With GTCTACACGTGAGGTT, the “relative binding free energy” value was 0.46 kcal/mol.

For ACATGCACGTGGGGAG, the “relative binding free energy” value was -0.17 kcal/mol.

CTTTTCACGTGAGGCT: the “relative binding free energy” value is 0.34 kcal/mol.

Turning to TGTCTCACGTGGTGAG, the “relative binding free energy” value is 0.14 kcal/mol.

With TTGCGCACGTGACTTT, the “relative binding free energy” value was determined as 0.16 kcal/mol.

For GCTTTCACGTGCAGTT, the “relative binding free energy” value amounted to 0.37 kcal/mol.

For the sequence TGGCTCACGTGGTGAG, the “relative binding free energy” value is 0.23 kcal/mol.

Consider GCTATCACGTGGGTTG, for which the “relative binding free energy” value amounted to 0.01 kcal/mol.

As for ATGGGCACGTGGTAGG, the “relative binding free energy” value is -0.12 kcal/mol.

Regarding GTGTTCACGTGTTGCA, the “relative binding free energy” value stood at 0.2 kcal/mol.

Consider GTGGTCACGTGTATCG, for which the “relative binding free energy” value was 0.14 kcal/mol.

Take CGCTGCACGTGGGGCT: the “relative binding free energy” value is -0.24 kcal/mol.

For TGTCGCACGTGTGTTA, the “relative binding free energy” value is -0.18 kcal/mol.

Consider TGTGTCACGTGGGACC, for which the “relative binding free energy” value was -0.06 kcal/mol.

In the case of AAATTCACGTGAGTTA, the “relative binding free energy” value came to 0.31 kcal/mol.

As for TGATACACGTGGGGGG, the “relative binding free energy” value was determined as 0.02 kcal/mol.

On to GGTCACACGTGCTGGT, for which the “relative binding free energy” value amounted to 0.11 kcal/mol.

Take GATGTCACGTGTTAGC: the “relative binding free energy” value was 0.22 kcal/mol.

As to TGTCCCACGTGGGCGG, the “relative binding free energy” value is -0.18 kcal/mol.

With GGTGGCACGTGTTTTA, the “relative binding free energy” value was 0.06 kcal/mol.

Consider TAATTCACGTGGGGAA, for which the “relative binding free energy” value was determined as 0.21 kcal/mol.

For the sequence TTATGCACGTGGTGGA, the “relative binding free energy” value is -0.01 kcal/mol.

As for TATCTCACGTGTGTTG, the “relative binding free energy” value worked out at 0.19 kcal/mol.

For GGTTACACGTGTCTAG, the “relative binding free energy” value came out at 0.15 kcal/mol.

Take TAAAGCACGTGGGTTT: the “relative binding free energy” value is -0.13 kcal/mol.

On to GAGGGCACGTGGTTGT, for which the “relative binding free energy” value was -0.04 kcal/mol.

For the sequence TATAGCACGTGTGAGT, the “relative binding free energy” value was determined as 0.06 kcal/mol.

Regarding TTTGTCACGTGGTACT, the “relative binding free energy” value was found to be 0.05 kcal/mol.

With TGGTCCACGTGGCGGA, the “relative binding free energy” value is -0.09 kcal/mol.

Regarding CGTCGCACGTGGTGTT, the “relative binding free energy” value was -0.22 kcal/mol.

For the sequence GTTTGCACGTGGTTAC, the “relative binding free energy” value was found to be 0.07 kcal/mol.

In the case of ATAGGCACGTGCTTTG, the “relative binding free energy” value was -0.23 kcal/mol.

For the sequence GTTTTCACGTGTTACA, the “relative binding free energy” value was 0.37 kcal/mol.

GTGGGCACGTGGGACT: the “relative binding free energy” value was -0.08 kcal/mol.

For the sequence AGGGACACGTGGTATC, the “relative binding free energy” value was found to be 0.04 kcal/mol.

In the case of AGGGTCACGTGCGAAG, the “relative binding free energy” value is -0.01 kcal/mol.

With GGTTACACGTGGTGAT, the “relative binding free energy” value amounted to 0.01 kcal/mol.

Take GTCTGCACGTGGTGCG: the “relative binding free energy” value was -0.1 kcal/mol.

Consider GAGCGCACGTGTGGTA, for which the “relative binding free energy” value was -0.03 kcal/mol.

As for TCTAGCACGTGTGGCG, the “relative binding free energy” value was 0.06 kcal/mol.

Turning to AGTAACACGTGGAGTG, the “relative binding free energy” value amounted to 0.04 kcal/mol.

Consider GAAAGCACGTGGGGAG, for which the “relative binding free energy” value was -0.15 kcal/mol.

As to GCTGTCACGTGGTTAG, the “relative binding free energy” value was found to be 0.09 kcal/mol.

As to GGTCTCACGTGGGGTT, the “relative binding free energy” value was 0.1 kcal/mol.

Regarding TGTGGCACGTGGCTAG, the “relative binding free energy” value is -0.14 kcal/mol.

In the case of TCATTCACGTGTTTGG, the “relative binding free energy” value stood at 0.27 kcal/mol.

Consider GTTTACACGTGGGCCG, for which the “relative binding free energy” value worked out at 0.19 kcal/mol.

Consider GTAAGCACGTGATAGT, for which the “relative binding free energy” value came out at 0.08 kcal/mol.

With AGCTTCACGTGGGGAA, the “relative binding free energy” value came out at 0.23 kcal/mol.

Turning to CAGTGCACGTGGTCTG, the “relative binding free energy” value was -0.14 kcal/mol.

As to TTACGCACGTGATTGT, the “relative binding free energy” value came to 0.01 kcal/mol.

As for GTGGGCACGTGATAGC, the “relative binding free energy” value is -0.06 kcal/mol.

On to CGGTTCACGTGGTAAG, for which the “relative binding free energy” value was found to be 0.17 kcal/mol.

On to CTGTGCACGTGCCTGG, for which the “relative binding free energy” value was -0.07 kcal/mol.

Regarding TAGTACACGTGTGTAT, the “relative binding free energy” value turned out to be 0.04 kcal/mol.

CAATGCACGTGGGGTG: the “relative binding free energy” value was -0.12 kcal/mol.

With ATGGTCACGTGCTTAA, the “relative binding free energy” value was found to be 0.14 kcal/mol.

For the sequence GGACACACGTGTGGGT, the “relative binding free energy” value is 0.16 kcal/mol.

As to GGGGTCACGTGGTACT, the “relative binding free energy” value was found to be 0.1 kcal/mol.

With GGGGGCACGTGTTGCC, the “relative binding free energy” value is -0.02 kcal/mol.
